Enrichment ratio data for 153 variants are collected here from a collection of fitness landscapes (doi:10.1126/science.1257360).

To fix the notation:
B1: PhoQ; a variant is named by its letters at X, in order, P23837 (parent)
chain: MKKLLRLFFPLSLRVRFLLATAAVVLVLSLAYGMVALIGYSVSFDKTTFRLLRGESNLFYTLAKWENNKLHVELPENIDKQSPTMTLIYDENGQLLWAQRDVPWLMKMIQPDWLKSNGFHEIEADVNDTSLLLSGDHSIQQQLQEVREDDDDAEMTHSVAVNVYPATSRMPKLTIVVVDTIPVELKSSYMVWSWFIYVLSANLLLVIPLLWVAAWWSLRPIEALAKEVRELEEHNRELLNPATTRELTSLVRNLNRLLKSERERYDKYRTTLTDLTHSLKTPLXXLQXXLRSLRSEKMSVSDAEPVMLEQISRISQQIGYYLHRASMRGGTLLSRELHPVAPLLDNLTSALNKVYQRKGVNISLDISPEISFVGEQNDFVEVMGNVLDNACKYCLEFVEISARQTDEHLYIVVEDDGPGIPLSKREVIFDRGQRVDTLRPGQGVGLAVAREITEQYEGKIVAGESMLGGARMEVIFGRQHSAPKDE

This is one part of the list.

The variants in the test derive from B1. Briefly: enrichment ratio after two sorts for PhoP signalling (ratio (wild type AVST 3.29)); higher = more functional. Conditions: with PhoP (E. coli).
For FWEY, the enrichment ratio is at most 0.25.
The value for IHWG was at most 0.25.
The value for RCFS was at most 0.25.
In the case of WYYW it was at most 0.25; in that of LLER, at most 0.25; in that of SHYG, at most 0.25.
For the variant VHPE, the enrichment ratio is at most 0.25.
Consider GIGS, for which the enrichment ratio was at most 0.25.
The value for MYKN was at most 0.25.
In the case of MFIE, the enrichment ratio was at most 0.25.
In the case of DTCY it was at most 0.25.
The value for LVPS was at most 0.25; that for NGGN was at most 0.25; that for TTAL was 18.4.
The value for VIAM was at most 0.25; that for SREP was at most 0.25.
For the variant RYRV, the enrichment ratio is at most 0.25.
In the case of EQRY it was at most 0.25; in that of RYQQ, at most 0.25; in that of YATA, at most 0.25.
In the case of IEWF it was at most 0.25.
In the case of DASC it was at most 0.25; in that of WTVG, at most 0.25; in that of NNNT, at most 0.25.
Regarding SQSH, the enrichment ratio turned out to be 6.55.
For the variant LMNT, the enrichment ratio was at most 0.25.
As for STME, the enrichment ratio worked out at 8.24.
The value for MVRM was at most 0.25.
In the case of VEDA it was at most 0.25; in that of RDCT, at most 0.25.
The value for NKSI was at most 0.25; that for PFQT was at most 0.25.
For the variant AMNH, the enrichment ratio was at most 0.25.
In the case of GMQI it was 0.253; in that of KVKD, at most 0.25.
Turning to EQVV, the enrichment ratio was at most 0.25.
In the case of PIFA it was at most 0.25; in that of NMNP, at most 0.25.
Consider RSLI, for which the enrichment ratio is at most 0.25.
As to VDCQ, the enrichment ratio was at most 0.25.
Turning to YHNH, the enrichment ratio was at most 0.25.
With RMKF, the enrichment ratio was at most 0.25.
Take DMHG: the enrichment ratio is at most 0.25.
In the case of MYTR it was at most 0.25; in that of KARL, at most 0.25; in that of SRHS, at most 0.25.
The value for TAFL was 1.44; that for MNFC was at most 0.25.
In the case of FIRY it was at most 0.25.
On to ISWQ, for which the enrichment ratio was at most 0.25.
Turning to DPTE, the enrichment ratio was at most 0.25.
In the case of MSVN it was at most 0.25; in that of AHPE, at most 0.25.
For KGTM, the enrichment ratio was at most 0.25.
RPGS: the enrichment ratio was at most 0.25.
In the case of LETF it was at most 0.25; in that of ALGY, at most 0.25; in that of TPSL, at most 0.25.
On to FRYF, for which the enrichment ratio is at most 0.25.
As to QKDN, the enrichment ratio is at most 0.25.
The value for WDKA was at most 0.25; that for IIWA was at most 0.25.
As for VYQK, the enrichment ratio is at most 0.25.
The value for PEHK was at most 0.25; that for VKIM was at most 0.25.
The value for HIMK was at most 0.25.
The value for QYWT was at most 0.25.
For the variant IVAA, the enrichment ratio is at most 0.25.
As to KYWC, the enrichment ratio is at most 0.25.
The value for KSSH was at most 0.25; that for DILN was at most 0.25; that for KAQN was at most 0.25.
Turning to MMDN, the enrichment ratio is at most 0.25.
Regarding SWQD, the enrichment ratio is at most 0.25.
In the case of NVIW it was at most 0.25; in that of NGFH, at most 0.25.
Consider HMIP, for which the enrichment ratio is at most 0.25.
In the case of QNEP it was at most 0.25; in that of KNQA, at most 0.25.
As to TKNM, the enrichment ratio was 31.9.
The value for NSSQ was at most 0.25; that for SALE was 6.77.
In the case of ILYT it was at most 0.25; in that of TADC, 0.543; in that of KQGG, at most 0.25.
As to KCEQ, the enrichment ratio was at most 0.25.
With GLSK, the enrichment ratio was at most 0.25.
As to DGSQ, the enrichment ratio is at most 0.25.
For GRAS, the enrichment ratio is at most 0.25.
In the case of EKRP it was at most 0.25; in that of GSGT, at most 0.25.
In the case of IAIF it was at most 0.25; in that of WQPR, at most 0.25.
Take ASVK: the enrichment ratio came to 0.907.
In the case of QLIK it was at most 0.25; in that of ATIH, 25.3.
In the case of FGYC it was at most 0.25; in that of WRLD, at most 0.25; in that of PKRP, at most 0.25.
The value for AMIS was at most 0.25; that for DDAN was at most 0.25.
With LGQY, the enrichment ratio is at most 0.25.
The value for KPAI was at most 0.25.
For the variant LADP, the enrichment ratio is at most 0.25.
The value for RGPR was at most 0.25; that for YTVV was 0.375.
The value for SKPR was at most 0.25.
The value for QFIY was at most 0.25; that for YCCR was at most 0.25; that for NFGG was at most 0.25.
As to YFPQ, the enrichment ratio is at most 0.25.
In the case of NHVF it was at most 0.25.
The value for SGTC was 8.42; that for HPYH was at most 0.25.
The value for TIVP was at most 0.25; that for DSFN was at most 0.25.
For PIKH, the enrichment ratio was at most 0.25.
On to TWQR, for which the enrichment ratio was at most 0.25.
The value for PCMI was at most 0.25; that for NMRA was at most 0.25.
For the variant PRQW, the enrichment ratio is at most 0.25.
The value for GLKN was at most 0.25; that for FWQR was at most 0.25; that for EVHH was at most 0.25.
For the variant WKMR, the enrichment ratio is at most 0.25.
The value for RQVY was at most 0.25; that for RQMD was at most 0.25; that for EIAF was at most 0.25.
In the case of DPTS it was at most 0.25; in that of VPCR, at most 0.25.
Take SQCS: the enrichment ratio was found to be 14.7.
Consider IVLW, for which the enrichment ratio is at most 0.25.
The value for EGYL was at most 0.25; that for FVTR was 0.369.
VGWQ: the enrichment ratio amounted to 1.18.
As for GNCS, the enrichment ratio worked out at 7.94.
In the case of NPRG it was at most 0.25; in that of NYTW, at most 0.25.
In the case of TEAF it was 13.8; in that of PCQN, at most 0.25.
As to GNLQ, the enrichment ratio was found to be 5.83.
Turning to FKIQ, the enrichment ratio is at most 0.25.
For the variant PYYS, the enrichment ratio was at most 0.25.
PATT: the enrichment ratio is at most 0.25.
The value for RVRC was at most 0.25; that for IPPD was at most 0.25; that for LVES was at most 0.25.
With YLNS, the enrichment ratio was at most 0.25.
In the case of ANNH it was 4.48; in that of VNYT, at most 0.25.
In the case of ATRR it was at most 0.25; in that of FKEF, at most 0.25.
Turning to YNFL, the enrichment ratio was at most 0.25.
